Structures are written as SMILES. Structures can show the parent of a compound that is named as a salt. Over roughly 1,900 compounds, “cell viability of compound + 1 nM pemigatinib relative to pemigatinib-only (DMSO) wells” has its median near 0.95; the lowest 2% begin near 0.22. The list shows a part of the results.

The assay relates to PDC-DUC18828. Description: cell viability of compound + 1 nM pemigatinib relative to pemigatinib-only (DMSO) wells (fraction); PDC-DUC18828 is a patient-derived cholangiocarcinoma cell line; higher = less growth inhibition. The note with it: first compound 1 µM; pemigatinib concentration 1 nM; 72 h. How it is done: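 Selleck Bioactive library screen in the patient-derived FGFR2 fusion-positive ICC cell line PDC-DUC18828 (500 cells/well). Each compound was tested at 1 uM with 1 nM pemigatinib, in triplicate, for 72 h. Viability was read by CellTiter-Glo and normalised to plate DMSO controls. Value is the paper's averaged normalised viability.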
On to `CNCC(=O)c1ccc(O)c(O)c1` [Adrenalone HCl] + CCN1C(=O)N(c2c(F)c(OC)cc(OC)c2F)Cc2cnc3[nH]c(CN4CCOCC4)cc3c21 [pemigatinib], for which the cell viability was found to be 0.881.

As for `CC(C)N(CCNC(=O)CN1CCCC1=O)C(C)C` [Pramiracetam] + CCN1C(=O)N(c2c(F)c(OC)cc(OC)c2F)Cc2cnc3[nH]c(CN4CCOCC4)cc3c21 [pemigatinib], the cell viability is 0.955.

Take `COC(=O)C1=CCCN(C)C1` [Arecoline] + CCN1C(=O)N(c2c(F)c(OC)cc(OC)c2F)Cc2cnc3[nH]c(CN4CCOCC4)cc3c21 [pemigatinib]: the cell viability came to 1.02.

Regarding `C[C@]12CC[C@H]3[C@@H](CC[C@@]45O[C@@H]4C(O)=C(C#N)C[C@]35C)[C@@H]1CC[C@@H]2O` [Trilostane] + CCN1C(=O)N(c2c(F)c(OC)cc(OC)c2F)Cc2cnc3[nH]c(CN4CCOCC4)cc3c21 [pemigatinib], the cell viability was found to be 0.971.

On to `C[C@]12N[C@H](Cc3ccccc31)c1ccccc12` [MK-801 (Dizocilpine)] + CCN1C(=O)N(c2c(F)c(OC)cc(OC)c2F)Cc2cnc3[nH]c(CN4CCOCC4)cc3c21 [pemigatinib], for which the cell viability is 0.932.

For `CC(=O)Nc1ccc(OC[C@](C)(O)C(=O)Nc2ccc([N+](=O)[O-])c(C(F)(F)F)c2)cc1` [Andarine] + CCN1C(=O)N(c2c(F)c(OC)cc(OC)c2F)Cc2cnc3[nH]c(CN4CCOCC4)cc3c21 [pemigatinib], the cell viability is 0.994.

Consider `C[C@](O)(COc1ccc(C#N)cc1)C(=O)Nc1ccc(C#N)c(C(F)(F)F)c1` + CCN1C(=O)N(c2c(F)c(OC)cc(OC)c2F)Cc2cnc3[nH]c(CN4CCOCC4)cc3c21 [pemigatinib], for which the cell viability came to 0.989.

For `C#C[C@]1(O)C=C[C@H]2[C@@H]3CCC4=CC(=O)CC[C@@H]4[C@H]3CC[C@@]21CC` [Gestodene] + CCN1C(=O)N(c2c(F)c(OC)cc(OC)c2F)Cc2cnc3[nH]c(CN4CCOCC4)cc3c21 [pemigatinib], the cell viability is 0.947.

Turning to `NCC(=O)O.[C-]#[O+].[C-]#[O+].[C-]#[O+].[Cl][Ru]` + CCN1C(=O)N(c2c(F)c(OC)cc(OC)c2F)Cc2cnc3[nH]c(CN4CCOCC4)cc3c21 [pemigatinib], the cell viability was found to be 0.935.

In the case of `Cc1cccc([C@H](C)c2c[nH]cn2)c1C` [Dexmedetomidine] + CCN1C(=O)N(c2c(F)c(OC)cc(OC)c2F)Cc2cnc3[nH]c(CN4CCOCC4)cc3c21 [pemigatinib], the cell viability amounted to 0.898.

`C[C@@]12N[C@@H](Cc3ccccc31)c1ccccc12` [(-)-MK 801 Maleate] + CCN1C(=O)N(c2c(F)c(OC)cc(OC)c2F)Cc2cnc3[nH]c(CN4CCOCC4)cc3c21 [pemigatinib]: the cell viability was found to be 0.926.

As to `COc1ccc2c(c1)/C(=C/c1cnc[nH]1)C(=O)N2` + CCN1C(=O)N(c2c(F)c(OC)cc(OC)c2F)Cc2cnc3[nH]c(CN4CCOCC4)cc3c21 [pemigatinib], the cell viability was 1.03.

Turning to `COc1ccc(C[C@H]2NC[C@H](O)[C@H]2OC(C)=O)cc1` [Anisomycin] + CCN1C(=O)N(c2c(F)c(OC)cc(OC)c2F)Cc2cnc3[nH]c(CN4CCOCC4)cc3c21 [pemigatinib], the cell viability was 0.22.

Take `CCC(COC(=O)c1cc(OC)c(OC)c(OC)c1)(c1ccccc1)N(C)C` (stereo not drawn) [Trimebutine] + CCN1C(=O)N(c2c(F)c(OC)cc(OC)c2F)Cc2cnc3[nH]c(CN4CCOCC4)cc3c21 [pemigatinib]: the cell viability came out at 1.04.

For the compound `C/C=C(\C)C(=O)N[C@@H](c1ccccc1)[C@@H](O)C(=O)O[C@H]1C[C@@]2(O)[C@@H](OC(=O)c3ccccc3)[C@@H]3[C@]4(OC(C)=O)CO[C@@H]4C[C@H](O)[C@@]3(C)C(=O)[C@H](OC(C)=O)C(=C1C)C2(C)C` [Cephalomannine] + CCN1C(=O)N(c2c(F)c(OC)cc(OC)c2F)Cc2cnc3[nH]c(CN4CCOCC4)cc3c21 [pemigatinib], the cell viability amounted to 0.19.

In the case of `NCCc1c[nH]c2ccc(O)cc12` [Serotonin HCl] + CCN1C(=O)N(c2c(F)c(OC)cc(OC)c2F)Cc2cnc3[nH]c(CN4CCOCC4)cc3c21 [pemigatinib], the cell viability was 0.96.

With `C[C@@H]1CC[C@H]2[C@@H](C)C(=O)O[C@@H]3O[C@@]4(C)CC[C@@H]1[C@]32OO4` [Artemisinin] + CCN1C(=O)N(c2c(F)c(OC)cc(OC)c2F)Cc2cnc3[nH]c(CN4CCOCC4)cc3c21 [pemigatinib], the cell viability worked out at 0.96.

For the compound `Cc1c(Cl)c(OCC(=O)N2CCN(C)CC2)nc2sc(C(=O)NC3CC3)c(N)c12` + CCN1C(=O)N(c2c(F)c(OC)cc(OC)c2F)Cc2cnc3[nH]c(CN4CCOCC4)cc3c21 [pemigatinib], the cell viability is 1.05.

With `O=C(Oc1ccc([N+](=O)[O-])cc1)N1CCC(C(O)(c2ccc3c(c2)OCO3)c2ccc3c(c2)OCO3)CC1` + CCN1C(=O)N(c2c(F)c(OC)cc(OC)c2F)Cc2cnc3[nH]c(CN4CCOCC4)cc3c21 [pemigatinib], the cell viability stood at 0.961.

Regarding `O=C1CCC[C@@H]2[C@H]3CCCN4CCC[C@@H](CN12)[C@@H]34` [(+)-Matrine] + CCN1C(=O)N(c2c(F)c(OC)cc(OC)c2F)Cc2cnc3[nH]c(CN4CCOCC4)cc3c21 [pemigatinib], the cell viability stood at 0.933.

As to `Cc1cccc(C)c1NC1=NCCCS1` [Xylazine HCl] + CCN1C(=O)N(c2c(F)c(OC)cc(OC)c2F)Cc2cnc3[nH]c(CN4CCOCC4)cc3c21 [pemigatinib], the cell viability came out at 0.954.

Consider `O=C(O[C@H]1C[N+]2(CCCOc3ccccc3)CCC1CC2)C(O)(c1cccs1)c1cccs1` [Aclidinium Bromide] + CCN1C(=O)N(c2c(F)c(OC)cc(OC)c2F)Cc2cnc3[nH]c(CN4CCOCC4)cc3c21 [pemigatinib], for which the cell viability was 0.927.

With `CN[C@@H]1C[C@H]2O[C@@](C)([C@@H]1OC)n1c3ccccc3c3c4c(c5c6ccccc6n2c5c31)C(=O)NC4` [Staurosporine] + CCN1C(=O)N(c2c(F)c(OC)cc(OC)c2F)Cc2cnc3[nH]c(CN4CCOCC4)cc3c21 [pemigatinib], the cell viability turned out to be 0.116.

On to `CC[C@@H]1/C=C/C=C/C[C@H](C)[C@H](O)[C@](C)(O)C(=O)[C@H](C)[C@@H](O)[C@H](C)C(=O)[C@H](C)[C@@H](O)[C@H](C)/C=C/C(=O)O[C@H]2[C@@H](C)[C@@H](CC1)O[C@@]1(CC[C@@H](C)[C@@H](C[C@H](C)O)O1)[C@@H]2C` [Oligomycin A] + CCN1C(=O)N(c2c(F)c(OC)cc(OC)c2F)Cc2cnc3[nH]c(CN4CCOCC4)cc3c21 [pemigatinib], for which the cell viability is 0.71.

Turning to `Cc1cc(SCc2sc(-c3ccc(C(F)(F)F)c(F)c3)nc2C)ccc1OCC(=O)O` + CCN1C(=O)N(c2c(F)c(OC)cc(OC)c2F)Cc2cnc3[nH]c(CN4CCOCC4)cc3c21 [pemigatinib], the cell viability turned out to be 1.04.

As for `CC(C)(C)[C@]1(O)CC2OC(=O)CC23C(=O)OC2OC(=O)[C@H](O)C231` (stereo partly drawn) [Bilobalide] + CCN1C(=O)N(c2c(F)c(OC)cc(OC)c2F)Cc2cnc3[nH]c(CN4CCOCC4)cc3c21 [pemigatinib], the cell viability was 0.908.

On to `O=P1(NCCCl)OCCCN1CCCl` (stereo not drawn) [Ifosfamide] + CCN1C(=O)N(c2c(F)c(OC)cc(OC)c2F)Cc2cnc3[nH]c(CN4CCOCC4)cc3c21 [pemigatinib], for which the cell viability turned out to be 0.936.

As to `NC(=O)CN1CCCC1=O` [Piracetam] + CCN1C(=O)N(c2c(F)c(OC)cc(OC)c2F)Cc2cnc3[nH]c(CN4CCOCC4)cc3c21 [pemigatinib], the cell viability came to 0.907.

The values above are taken from the supplement of paper PMC9588766.
